Reference: patent US20100093618A1 (published 2010)

How the values were obtained:
[1] = target: T1, HA-IκB-α (pCMV4-HA-IκB-α 1-317, expressed in transfected cells) (UniProt P25963 1-317); test: GST pulldown from extracts of transfected HeLa cells, MEFs and p50-/- p65-/- MEFs, anti-HA Western blot
T1 sequence (looked up): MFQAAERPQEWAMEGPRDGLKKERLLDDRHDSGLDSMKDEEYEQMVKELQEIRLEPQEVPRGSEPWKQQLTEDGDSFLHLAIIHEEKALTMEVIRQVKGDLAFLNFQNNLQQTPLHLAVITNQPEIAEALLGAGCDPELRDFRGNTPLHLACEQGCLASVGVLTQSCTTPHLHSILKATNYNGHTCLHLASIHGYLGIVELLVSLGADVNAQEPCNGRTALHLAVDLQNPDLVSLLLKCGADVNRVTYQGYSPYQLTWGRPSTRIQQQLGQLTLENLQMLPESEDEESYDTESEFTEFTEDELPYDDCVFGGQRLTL

[2] = target: T2, [35S]methionine-labeled IκB-α 1-263 (in vitro translated) (UniProt P25963 1-263, [35S]methionine label); test: GST pulldown of [35S]-labeled in vitro translated protein, autoradiography
T2 construct: Translated in vitro from pcDNA3
T2 sequence (looked up): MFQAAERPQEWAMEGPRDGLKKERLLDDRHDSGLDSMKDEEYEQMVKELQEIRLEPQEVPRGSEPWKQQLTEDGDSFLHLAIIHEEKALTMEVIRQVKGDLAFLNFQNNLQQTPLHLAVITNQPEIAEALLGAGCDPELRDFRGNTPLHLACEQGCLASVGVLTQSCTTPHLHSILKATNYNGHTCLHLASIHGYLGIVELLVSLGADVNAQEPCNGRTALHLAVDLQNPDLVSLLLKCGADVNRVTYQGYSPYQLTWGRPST

[3] = target: T3, [35S]methionine-labeled IκB-α 1-269 (in vitro translated) (UniProt P25963 1-269, [35S]methionine label); test: as above
T3 construct: Translated in vitro from pcDNA3
T3 sequence (looked up): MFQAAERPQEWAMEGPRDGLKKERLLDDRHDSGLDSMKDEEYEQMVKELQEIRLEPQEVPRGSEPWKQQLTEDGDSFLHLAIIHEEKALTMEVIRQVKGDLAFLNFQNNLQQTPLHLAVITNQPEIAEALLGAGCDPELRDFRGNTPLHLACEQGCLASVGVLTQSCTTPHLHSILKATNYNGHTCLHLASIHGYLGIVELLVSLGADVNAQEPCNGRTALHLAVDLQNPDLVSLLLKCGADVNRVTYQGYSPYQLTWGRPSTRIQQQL

[4] = target: T4, [35S]methionine-labeled IκB-α 1-317 (in vitro translated) (UniProt P25963 1-317, [35S]methionine label); test: as above
T4 construct: Translated in vitro from pcDNA3 (T7 promoter); also called IκB-α wild type
T4 sequence (looked up): T1 sequence (looked up)

Measured: binding result

B1: GST (other)
chain: not shown
notes: Negative control in the pulldowns; also called GST protein; GST alone
no binding: all assays above
